The values below come from the supplement of paper PMC10126150.

Sequences with one replicate were seen in a single cluster, so their values are uncertain.

This data set relates to ATP. As to the kind of experiment: switch fluorescence ratio, 500 uM ATP over buffer (Cy3 cluster intensity, sum of 5 cycles each) (fold (ratio)); higher = stronger signal-on switching upon ATP binding; sequences stand for … in TCGTCGGCAGCGTCAGATGTGTATAAGAGACAGTTTTTTTTTTTTTTTTTTTTTTTTT…TC. To be noted: aptamer strand: ATP DNA aptamer (quencher-CACCTGGGGGAGTATTGCGGAGGAAGG + anchor), 100 nM annealed; ATP concentration: 500 uM; one replicate. In a few lines:
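Clusters with intensities outside 100-1000 RFU were excluded. The remaining Cy3-labelled switching-strand clusters on a modified Illumina MiSeq flow-cell had been annealed to 100 nM quencher-labelled ATP aptamer and imaged in selection buffer, then after 15 min with 500 uM ATP at 22 °C, for five cycles separated by NaOH stripping and re-annealing. The fluorescence ratio, averaged per switch-domain sequence, is each cluster's summed target-cycle Cy3 intensity over its summed buffer-cycle Cy3 intensity.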
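Also: ATP exposure 15 min at 22 °C before imaging.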

With ATGCTGGATT, the switch fluorescence ratio came to 0.986.
For the sequence GATTTAGTGA, the switch fluorescence ratio was determined as 1.03.
As for ATGATTCCTC, the switch fluorescence ratio was determined as 1.13.
For the sequence TCCACTATTT, the switch fluorescence ratio was found to be 1.04.
For TGTATTGCCA, the switch fluorescence ratio was found to be 0.975.
On to CCATTGCGTC, for which the switch fluorescence ratio stood at 1.06.
Turning to TACAACTCGC, the switch fluorescence ratio turned out to be 1.05.
Turning to GAAGCGCGGC, the switch fluorescence ratio worked out at 1.06.
The value for AGTTATAGT was 0.986; that for TATCTAGCTC was 1; that for ACTCCCGCCG was 1.15.
With CTTGATTTAA, the switch fluorescence ratio was determined as 1.
With TGCTTTGGAG, the switch fluorescence ratio is 0.992.
TTGTTAGCGA: the switch fluorescence ratio was found to be 1.84.
The value for TAGTTTGATA was 0.976; that for TGTTCGCTGT was 1.05.
Regarding CGACATTC, the switch fluorescence ratio was 1.12.
As for GACATACGA, the switch fluorescence ratio came to 1.41.
TAACTTTCCC: the switch fluorescence ratio came to 1.81.
For CCCGATGTTG, the switch fluorescence ratio worked out at 1.05.
In the case of AATGCGGGAG, the switch fluorescence ratio came out at 0.969.
As for GCAATTTTAT, the switch fluorescence ratio is 1.09.
Consider GCTTAGAGAG, for which the switch fluorescence ratio is 0.998.
On to TTGATGGAGT, for which the switch fluorescence ratio is 0.978.
With ACGGACATGT, the switch fluorescence ratio worked out at 1.04.
Regarding TACCTCGTCT, the switch fluorescence ratio was found to be 0.986.
The figure for ATTGCGCATC is 1.19; for CGGCGGTGCC it is 0.948; for CTGGATTAGT it is 1.02.
For TCAGATGTAG, the switch fluorescence ratio was determined as 1.01.
Take TTGGTTCCTA: the switch fluorescence ratio was 1.02.
For CAACGGATTG, the switch fluorescence ratio came to 0.973.
Consider AGACGGGA, for which the switch fluorescence ratio is 1.01.
AGGCACGTTT: the switch fluorescence ratio was determined as 1.02.
Turning to GATAGGGAGT, the switch fluorescence ratio was 1.05.
On to CTATTGGGAC, for which the switch fluorescence ratio amounted to 1.02.
The figure for AGGAACTGCG is 1; for AATTAGAGCG it is 1.01; for AAAATAACAT it is 0.966.
The value for GATACAGTGA was 1.01; that for ATAAGCTAAT was 0.983; that for GCCTCCCAGT was 1.06.
As for GAACCGAGTT, the switch fluorescence ratio stood at 0.978.
With CCATATTGTC, the switch fluorescence ratio was determined as 1.06.
Take TTGTCGAAAG: the switch fluorescence ratio worked out at 0.969.
The value for TTCGGTATT was 0.998; that for TCGCTAAGTC was 1.11; that for GGAAAAGCAA was 1.23.
As for TTTGTTCCTG, the switch fluorescence ratio was determined as 1.05.
As to AGTGGCGTGG, the switch fluorescence ratio was found to be 1.
With TGCCGTCTG, the switch fluorescence ratio stood at 1.02.
Consider AAACCTTTAT, for which the switch fluorescence ratio was determined as 1.19.
Consider AATCGCGGA, for which the switch fluorescence ratio was found to be 1.03.
For GCGGTTGGT, the switch fluorescence ratio stood at 1.
With CCGGCCTAAT, the switch fluorescence ratio came to 1.12.
Take CGAATTTCCT: the switch fluorescence ratio was found to be 1.03.
Take TGGGTGGATT: the switch fluorescence ratio was 0.994.
With GAAATAATTT, the switch fluorescence ratio is 1.01.
In the case of ATCCAGACTG, the switch fluorescence ratio was 0.993.
In the case of ATCTGATTAT, the switch fluorescence ratio worked out at 1.
Turning to TCGTTGAGCC, the switch fluorescence ratio was 0.993.
The figure for ATGGAGTAT is 0.996.
The value for TATATGGATG was 0.955; that for ACCCGCATGT was 3.44; that for GCCTTTCCTT was 2.01.
With TACCATGGGT, the switch fluorescence ratio is 1.02.
With GGAGTAGCCT, the switch fluorescence ratio is 1.03.
